# Laboratory results from PubChem BioAssay AID1347417 (National Center for Advancing Translational Sciences (NCATS), 2020).
# Hit rate of the full screen: of about 120,000 compounds, about 5,300 (4.4%) were called active. The shares of active, inactive and inconclusive entries below differ from those in the screen. Calls come from the whole dose curve; as a rule, active = well fitted inhibition curve with a large enough effect; inconclusive = small, poorly fitted or top-dose-only effect; inactive = no such curve, though single readings can be large or run the other way. Where the call is inconclusive, the potency comes from a doubtful curve fit.
# Test: qHTS Primary assay for Inhibitors of Plasmodium falciparum Dd2 growth in vitro; note: nearly all actives have a fitted effect of over 65% in size;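 for activity, negative = inhibition: plate controls were DMSO vehicle for no effect and reference drug for full effect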
# Conditions: P. falciparum Dd2 growth, SYBR Green, 72 h; activity, negative = inhibition: at 28.9 µM (top of the series) unless noted; series mostly up to 28.9 µM
# Summary of the method: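 Readout: SYBR Green fluorescence, 485 nm excitation, 535 nm emission, after ~16 h lysis at 37C. Before that, Dd2-infected red cells (2.5% hematocrit) grew 72 h with compound, 29 uM top final concentration.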
# Potency is the fitted concentration of half-maximal effect; tags give direction and shape of the fitted curve.
SMILES,Potency,"activity, negative = inhibition",outcome
COc1cccc(-c2nc3c([nH]2)CN(C(C)C(=O)NC2CCCCC2)CC3)c1 (configuration not stated),"inconclusive: 15.8 µM [inhibitor, partial curve, poor fit]",–,–
Cc1nc(C(=O)N2CCC(c3nnc(Cn4cccn4)n3C)CC2)cs1,–,inactive: 10.9%,–
CCN1CC(CN(C)C(=O)c2cc(Cn3c(C)nc4ccccc43)[nH]n2)CC1=O (configuration not stated),–,inactive: -1.28%,–
CC1(c2ccccc2)N(Cc2ccccc2C#N)C(=O)OC12CCN(c1ccncc1)CC2 (configuration not stated),active: 11.2 µM,–,–
COc1ccc(CN[C@H]2[C@H](O)[C@@H](N3CCN(c4ccccc4OC)CC3)[C@@H]3OC[C@H]2O3)cc1,"inconclusive: 14.1 µM [inhibitor, partial curve, poor fit]",–,–
COc1ccc(N2CCN(CC(O)COc3ccc(C(C)C)c(C)c3)CC2)cc1 (configuration not stated),"inconclusive: 15.8 µM [inhibitor, single point]",–,–
COc1ccc(C(=O)N2CCCC2)c(OC2CCN(C(=O)c3ccn[nH]3)CC2)c1,–,inactive: -11.3%,–
CC(C)(C)c1ccc(C(=O)Nc2ccc(-c3nc4cc(Cl)ccc4o3)cc2)cc1,"inconclusive: 0.0794 µM [inhibitor, full curve, poor fit]",–,–
CCOc1ccc(NCc2cccn2-c2nnc(N3CCC(C(=O)NCc4ccc(C)cc4)CC3)s2)cc1,"inconclusive: 10 µM [inhibitor, single point]",–,–
CC(C)(C)NC(=O)c1ccc(-c2nnc3ccc(NC(=O)C4CC4)cn23)cc1,"inconclusive: 0.126 µM [inhibitor, full curve, poor fit]",–,–
O=[S+]([O-])(Nc1ccccc1)c1ccc2c(c1)OCCN(Cc1ccccc1F)C2,"inconclusive: 11.2 µM [inhibitor, single point]",–,–
CC(NC(=O)C(=O)Nc1c2c(nn1-c1ccccc1)CSC2)c1ccccc1 (configuration not stated),"inconclusive: 10 µM [inhibitor, single point]",–,–
CCN1c2cc(C(=O)Nc3cc(C)ccc3OC)ccc2C(=O)N2CCCCCC21 (configuration not stated),active: 6.31 µM,–,–
COc1ccc(OC)c2sc(N(Cc3cccnc3)C(=O)c3ccc(C(C)=O)cc3)nc12,"inconclusive: 17.8 µM [inhibitor, single point]",–,–
CCNc1cc(N2CCC(CCC(=O)NCCc3cccnc3)CC2)ncn1,"inconclusive: 10 µM [inhibitor, single point]",–,–
COc1ccc(NC(=O)CCn2ccn3nc4c(c3c2=O)CCCC4)cc1OC,"inconclusive: 0.126 µM [inhibitor, full curve, poor fit]",–,–
COc1ccc(-c2nc(C)c(CCNC(=O)c3cc(OC)c(OC)c(OC)c3)s2)cc1OC,"inconclusive: 8.91 µM [inhibitor, single point]",–,–
Cc1ccc(-c2ccc3nnc(CNC(=O)c4cccc(C#N)c4)n3n2)cc1,"inconclusive: 8.91 µM [inhibitor, partial curve]",–,–
CCOc1ccc(-c2csc(-c3nc(-c4ccc(Br)s4)cs3)n2)cc1,–,inactive: 3.61%,–
Cc1ccc(NC(=O)C2CCN(c3nnc(-n4cccc4)s3)CC2)cc1Cl,"inconclusive: 11.2 µM [inhibitor, single point]",–,–
Cc1nnc(SCC(=O)NCc2ccc(N(C)C)cc2)c2nn(-c3ccccc3)c(C)c12,"inconclusive: 11.2 µM [inhibitor, single point]",–,–

SMILES,Potency,"activity, negative = inhibition",outcome
CN1C(=O)CCC2(CNC(=O)c3cccnc3)CCC=C12 (configuration not stated),–,inactive: -8.04%,–
COc1ccc(C2Cn3nnc(-c4noc(-c5cccnc5)n4)c3CO2)cc1 (configuration not stated),"inconclusive: 1.12 µM [inhibitor, partial curve, poor fit]",–,–
Cc1nnc(-c2cc(-c3ccc([S+](C)(=O)[O-])cc3)ccn2)n1Cc1ccccc1,"inconclusive: 1.26 µM [inhibitor, partial curve, poor fit]",–,–
O=C1NCCCCCN(Cc2cn[nH]c2-c2ccccc2)[C@H]2CCC[C@@H]12,"inconclusive: 3.98 µM [inhibitor, partial curve, poor fit]",–,–
O=C(COc1cccnc1)N[C@H]1CCOC[C@H]1C1CCOCC1,"inconclusive: 1 µM [inhibitor, partial curve, poor fit]",–,–
CN1CCCCCCN(C(=O)C2(c3ccccc3)CC2)[C@H]2CCC[C@H]2C1=O,"inconclusive: 5.01 µM [inhibitor, partial curve, poor fit]",–,–
O=C(CN1CCOCC1)N1CC(F)(F)C[C@H]1c1nc(C2CC2)no1,–,inactive: 21.8%,–
CCC(O)CNC(=O)c1cn2cc(-c3ccc(F)cc3)n(CC=C(C)C)c(=O)c2n1 (configuration not stated),"inconclusive: 10 µM [inhibitor, partial curve]",–,–
CCOc1ccccc1-c1noc(-c2ncn3c2COC(c2ccc(OC)cc2)C3)n1 (configuration not stated),"inconclusive: 2.51 µM [inhibitor, partial curve, poor fit]",–,–
COc1ccc(CCC(=O)NCc2nc3cccnc3n2Cc2ccc(C)cc2)cc1,"inconclusive: 14.1 µM [inhibitor, partial curve]",–,–
COc1cccc(CNC(=O)Cn2c(SCC(=O)Nc3ccc(F)cc3)nc3ccccc32)c1,"inconclusive: 0.126 µM [inhibitor, full curve, poor fit]",–,–
COc1cc2c(cc1OC)C(CNC(=O)Cc1ccccc1)N(C(=O)Nc1ccccc1F)CC2 (configuration not stated),"inconclusive: 3.55 µM [inhibitor, single point]",–,–
CCCCN(CC)CCCNC(=O)C1CCN(c2nc3ccc(CC)cc3s2)CC1,"inconclusive: 10 µM [inhibitor, single point]",–,–
CN1CC2(CCN(C(=O)c3cc4ccccc4[nH]3)CC2)CC1C(=O)N1CCOCC1 (configuration not stated),"inconclusive: 6.31 µM [inhibitor, partial curve]",–,–
O[C@@H]1C[C@@H](c2nc(Cc3ccc(F)cc3Cl)no2)N(Cc2ccco2)C1,"inconclusive: 17.8 µM [inhibitor, single point]",–,–
Cc1ncoc1C(=O)N1CCCCCCNC(=O)[C@@H]2C[C@@H](c3nc(Cc4ccccc4)no3)C[C@@H]21,"inconclusive: 2.82 µM [inhibitor, partial curve, poor fit]",–,–
C[C@@H](NC(=O)C1CCCCC1)c1onc(-c2ccc(F)cc2)c1C(=O)O,–,inactive: 9.8% [at 44.1 µM],–
COc1ccc(C(=O)NCCC2CCN(C(=O)Nc3ccccc3)CC2)cc1OC,"inconclusive: 10 µM [inhibitor, single point]",–,–
Cc1cc(=O)n(CC(=O)N2CCN(c3ccccc3F)CC2)c(-c2ccc(F)cc2)n1,–,inactive: 28.5%,–
O=C(c1ccc2c(c1)N(Cc1cccc(Cl)c1)C(=O)c1ccccc1S2(=O)=O)N1CCC(Cc2ccccc2)CC1,"inconclusive: 11.2 µM [inhibitor, single point]",–,–
O=C(NC[C@H]1O[C@@H](CO)[C@@H](O)[C@H]1N1CCN(c2ccc(F)cc2)CC1)c1cccs1,–,inactive: -10.6%,–

SMILES,Potency,"activity, negative = inhibition",outcome
COc1cc(Cl)c(C)cc1Nc1c2c(nc3ccccc13)CCC2,active: 8.91 µM,–,–
CCCN(C)c1nccnc1OC1CCN(C(=O)Cc2ccccc2OC)C1 (configuration not stated),"inconclusive: 14.1 µM [inhibitor, single point]",–,–
CCOC(=O)C1=C(c2ccccc2)Nc2ncnn2C1c1ccc(Cl)cc1 (configuration not stated),"inconclusive: 10 µM [inhibitor, single point]",–,–
CCc1ccc(NC(=O)C2CCN(S(=O)(=O)c3c(C)noc3/C=C/c3cccs3)CC2)cc1,active: 12.6 µM,–,–
O=C(C1CC=CC1)N1CCC2(CC1)NCCc1c2[nH]c2ccccc12,"inconclusive: 10 µM [inhibitor, partial curve, poor fit]",–,–
Cc1cccc(-n2nc(C)c(CCC(=O)N3CCSCC3)c2Oc2ccccc2C)c1,active: 8.91 µM,–,–
O=C(COc1ccc(-c2nnc3n2CCCC3)cc1)Nc1ccccc1,active: 7.94 µM,–,–
CCOc1cc(=O)n2c(c1C(=O)Nc1ccccc1)CCCC2,–,inactive: 26.6%,–
Cc1cc(Nc2ccc(C(C)C)cc2)nc(-n2nc(C)cc2C)n1,"inconclusive: 1.12 µM [inhibitor, single point]",–,–
Cc1nc(-c2c3n(c(=O)n(CC(=O)Nc4ccc(C)c(Cl)c4)c2=O)CCCC3)no1,–,–,inactive
Cc1cccc2sc(N(Cc3cccnc3)C(=O)Cc3ccccc3)nc12,"inconclusive: 17.8 µM [inhibitor, single point]",–,–
COc1ccc(C(=O)N2CCc3ccc(C(=O)Nc4ccc5c(c4)OCCO5)cc32)cc1,"inconclusive: 3.16 µM [inhibitor, partial curve]",–,–
COc1cc2c(cc1OCC1CC1)NC(=O)C21CCN(C(=O)c2cccc(C#N)c2)CC1,"inconclusive: 2 µM [inhibitor, partial curve, poor fit]",–,–
OCC1CN(Cc2cscn2)CCC12CCN(Cc1ccccc1)CC2 (configuration not stated),"inconclusive: 7.94 µM [inhibitor, partial curve, poor fit]",–,–
CC(=O)NC[C@H]1OC[C@@H](NC2CCC(F)(F)CC2)[C@@H]1O,"inconclusive: 6.31 µM [inhibitor, single point]",–,–
COc1ccc2c(CNCc3cccs3)c(C(=O)O)n(Cc3ccc(F)cc3Cl)c2c1,"inconclusive: 10 µM [inhibitor, single point]",–,–
CC(=O)Oc1c(-c2ccc(NC(=O)c3cccs3)cc2)c(-c2cccc(F)c2)nn1-c1ccccc1,"inconclusive: 1.58 µM [inhibitor, full curve, poor fit]",–,–
CCOc1ccccc1CN1CCC2(CCN(Cc3ccsc3)CC2)Oc2ccccc21,active: 10 µM,–,–
C[S+](=O)([O-])c1ccc(-c2cnc3n[nH]c(-c4ccccc4)c3n2)cc1,"inconclusive: 3.55 µM [inhibitor, full curve, poor fit]",–,–
COCCN1Cc2ccc(NCc3ccccc3)nc2C(C)(C(=O)NC2CCOCC2)C1 (configuration not stated),"inconclusive: 2.24 µM [inhibitor, single point]",–,–
